Experimental data: PMC4336329 (PLoS ONE, 2015)
Among all 310,000 compounds or so, about 14,000 (4.5%) showed an effect of 50% or more. Effects have a minus sign here. This is one part of the list.

Molecular target: human ether-à-go-go-related gene (hERG) potassium channel (human, UniProt Q12809)
Experiment: primary screen, population patch clamp on CHO cells stably expressing hERG
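Further: peak tail current of the secondary pulse compared with the same well before compound.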

human ether-à-go-go-related gene (hERG) potassium channel, sequence (Q12809 whole entry, looked up): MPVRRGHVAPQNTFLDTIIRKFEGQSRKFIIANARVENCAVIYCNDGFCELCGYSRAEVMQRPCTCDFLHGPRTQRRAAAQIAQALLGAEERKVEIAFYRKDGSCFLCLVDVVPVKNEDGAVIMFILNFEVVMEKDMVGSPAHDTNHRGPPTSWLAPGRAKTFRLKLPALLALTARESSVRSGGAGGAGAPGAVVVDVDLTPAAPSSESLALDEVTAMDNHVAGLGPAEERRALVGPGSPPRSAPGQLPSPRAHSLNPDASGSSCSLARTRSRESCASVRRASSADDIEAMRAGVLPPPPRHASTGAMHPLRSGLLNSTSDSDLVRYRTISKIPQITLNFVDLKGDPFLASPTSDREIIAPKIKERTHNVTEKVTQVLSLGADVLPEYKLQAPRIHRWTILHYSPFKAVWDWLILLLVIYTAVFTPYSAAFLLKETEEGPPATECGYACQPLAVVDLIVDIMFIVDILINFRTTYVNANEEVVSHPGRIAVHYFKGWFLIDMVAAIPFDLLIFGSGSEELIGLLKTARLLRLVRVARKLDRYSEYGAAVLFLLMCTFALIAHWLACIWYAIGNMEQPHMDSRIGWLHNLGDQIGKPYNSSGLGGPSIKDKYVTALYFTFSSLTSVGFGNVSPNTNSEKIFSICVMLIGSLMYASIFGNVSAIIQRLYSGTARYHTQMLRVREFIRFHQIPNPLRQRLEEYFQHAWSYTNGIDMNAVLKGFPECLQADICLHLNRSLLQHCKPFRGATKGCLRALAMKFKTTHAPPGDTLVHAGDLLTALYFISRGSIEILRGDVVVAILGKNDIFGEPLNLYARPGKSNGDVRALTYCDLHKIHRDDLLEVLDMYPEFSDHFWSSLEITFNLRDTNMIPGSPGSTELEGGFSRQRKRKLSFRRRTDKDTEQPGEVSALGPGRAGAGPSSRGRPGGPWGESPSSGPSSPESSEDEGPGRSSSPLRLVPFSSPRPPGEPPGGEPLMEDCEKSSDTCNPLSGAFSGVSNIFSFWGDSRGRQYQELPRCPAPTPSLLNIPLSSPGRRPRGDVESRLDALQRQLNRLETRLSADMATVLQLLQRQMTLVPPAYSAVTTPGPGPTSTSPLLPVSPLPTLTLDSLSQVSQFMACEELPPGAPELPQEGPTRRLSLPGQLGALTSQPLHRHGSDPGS

SMILES	hERG current change (%, negative = inhibition) at 10uM
Cc1nonc1C(=O)N1CCCC(Nc2ccc(C(C)C)cc2)C1 (centres unmarked)	-14.2%
CCc1nnc(NC(=O)CSCc2cc(=O)n3nc(C)sc3n2)s1	23.6%
Cc1cc(NC(=O)C2CCCCC2)ncc1NC(=O)c1ccccn1	8.6%
Cc1ccc(S(=O)(=O)Nc2c(C)nc3nc(C)[nH]n3c2=O)c(C)c1	10.3%
CCN(CC)S(=O)(=O)c1cc(OC)c(C)cc1C	-5.58%
CC(=O)Nc1ccc(NC(=O)C2c3ccccc3Oc3ccccc32)cc1	5.31%
COc1cccc(CNC(=O)COC(=O)c2cccc(S(=O)(=O)N3CCN(C(C)=O)CC3)c2)c1	-9.4%
O=C(CSc1nnc(-c2ccco2)n1Cc1ccccc1)c1ccc(F)cc1	-45.7%
O=C1CS/C(=N/N=C/c2cccs2)N1	-20.8%
CCOC(=O)Cc1csc(NC(=O)CSc2nc(N)c3c(C)c(C)sc3n2)n1	-4.9%
CC(=O)c1cccc(OCc2cc(C(=O)N(C)Cc3cnccn3)no2)c1	12.8%
CCOc1ccccc1NC(=S)N1CCN(c2ccccc2F)CC1	6.51%
O=C(O)C(=O)O.O=S(=O)(c1ccc2ccccc2c1)N1CCN(Cc2ccccn2)CC1	-1.99%
CC(C)(C)NC(=O)CN(C(=O)CS(=O)CC(=O)Nc1ccc(F)cc1)c1ccc(F)c(Cl)c1 (centres unmarked)	-9.22%
CC(C)CC1(C)NC(=O)N(CC(=O)NC(=O)Nc2ccc3c(c2)OCCO3)C1=O (centres unmarked)	-6.26%
Cc1onc(-c2ccccc2Cl)c1C(=O)Nc1nn[nH]n1	6.51%
Cc1cc(C)c(NC(=O)/C=C\C(=O)O)c(Cl)c1	-3.75%
O=C(COC(=O)CNC(=O)c1ccco1)Nc1ccc(Cl)cn1	-17.8%
CCCOC(=O)c1ccc(NC(=O)CC(C)(C)C)cc1	-11.1%
O=C1N=C(N2CCCC2)S/C1=C\c1cn[nH]c1-c1ccccc1	-4.48%
CNC(=O)CCn1nc(-c2ccc(C)cc2)c2ccccc2c1=O	-8.28%
CCc1nc(SCC(=O)NNC(=O)C2CCCCC2)c2ccccc2n1	-3.6%
COc1ccc(CN2CCN(Cc3ccccc3)CC2)c(OC)c1	-69.9%

SMILES	hERG current change (%, negative = inhibition) at 10uM
Cc1ccc(-n2nnnc2-c2cccnc2)cc1	-8.25%
Cc1ccc(C(=O)Nn2cnnc2)cc1S(=O)(=O)N1CCOCC1	-1.94%
Cc1ccc(Oc2nc3c(c(=O)n(C)c(=O)n3C)n2C)cc1C	-7.1%
CC[C@@]1(c2cccc(C)c2)C(=O)N(C(=O)OC)N1C(=O)OC	21.8%
Nc1ccc(S(=O)(=O)Nc2nccc(/C=C/c3ccc(Br)s3)n2)cc1	13.7%
O=C(c1cccs1)n1nc(-c2ccccc2)nc1NCc1ccco1	-9.9%
O=C(COc1cccc2ccccc12)Nc1nc2ccccc2[nH]1	7.7%
COCCn1ccc2c(OCC(=O)Nc3cccc(NC(C)=O)c3)cccc2c1=O	1.01%
Cc1nc(-c2ccccc2)sc1C1(C)CC(c2c(Cl)cccc2Cl)=NO1 (centres unmarked)	13.1%
O=C(COc1ccc2c(c1)OCO2)Nc1ccccc1F	5.18%
Br.N=c1c2c(n(Cc3ccc(Br)cc3)c3c1CCC3)CCCC2	-21.5%
COc1cc(C(c2c(C)[nH][nH]c2=O)c2c(C)[nH][nH]c2=O)cc(Br)c1OC	5.3%
CC(NC(=O)NC(=O)c1cccc([N+](=O)[O-])c1)C1CC1 (centres unmarked)	10.7%
COc1cccc(CN2CCCC(C(=O)N3CCCCC3)C2)c1OC.O=C(O)C(=O)O (centres unmarked)	-26.3%
Cc1noc(C)c1C(=O)NCCCN1CCCC1=O	4.95%
O=C(CCSCc1cccc(Cl)c1)NCCc1ccc(Cl)cc1	4.09%
CCOC(=O)C1CCN(Cc2nc3ccccc3c(=O)n2-c2ccc(F)cc2)CC1	-24.9%
COc1ccc(NC(=O)C(NC(C)=O)C(=O)NCc2ccccc2OC)cc1 (centres unmarked)	-1.36%
CCOC(=O)C1CCCN(Cc2nc(N)nc(Nc3ccccc3OC)n2)C1 (centres unmarked)	-70.8%
O=C(Nc1cc(Cl)ccc1N1CCOCC1)c1ccco1	-2.8%
O=C(/C=C/c1ccco1)Nc1ccc(Oc2ccccc2)cc1	-5.74%
O=C1CC(Nc2ccccc2)C(=O)N1Cc1ccccc1 (centres unmarked)	3.61%
O=C1CN(c2nnnn2-c2ccccc2)CCN1	-6.89%

SMILES	hERG current change (%, negative = inhibition) at 10uM
Cc1[nH]n(-c2ccccc2)c(=O)c1-c1cccc(Cl)c1	31.7%
CCCn1c2ccc(F)cc2c2nnc(NN)nc21	-1.94%
Cc1cccc(N2CCN(c3ccc(NC(=O)/C=C(/C(=O)O)c4ccccc4)cc3)CC2)c1	15.7%
COc1ccc([N+](=O)[O-])cc1NC(=O)C(C)N1CCN(C(=O)c2ccco2)CC1 (centres unmarked)	-7.41%
Cc1cccc(Nc2nc(C)nc3c2oc2ccccc23)c1.Cl	-7.37%
C=CCn1c(C)cc(C(=O)CSc2ccc(NC(C)=O)cc2)c1C	-0.616%
COC(=O)CNC(=O)CNC(=O)c1nn(-c2ccc(OC)c(Cl)c2)c(=O)c2ccccc12	15.7%
O=C(/C=C/c1ccc(Cl)c(Cl)c1)N1CCc2ccccc21	6.26%
CC(C)CNC(=S)NC(=O)c1ccc(F)cc1	5.45%
COc1ccc(-c2noc(C(C)NC(=O)c3ccco3)n2)cc1OC (centres unmarked)	8.32%
Cc1ccc(NC2SC(=O)N(Cc3cccc(C(=O)O)c3)C2=O)c(C)c1 (centres unmarked)	14.2%
COc1ccc(-c2csc3nc(C)nc(N4CCN(C(C)=O)CC4)c23)cc1OC	-4.58%
CCOc1nc2cnccc2n(CC(=O)Nc2cccc(C)c2)c1=O	13.3%
Cc1cc(C)c(S(=O)(=O)Nc2ccc3[nH]c(=O)[nH]c3c2)c(C)c1	2.9%
O=C(CN(C(=O)CCC(=O)Nc1nccs1)c1cccc(F)c1)NCc1ccc2c(c1)OCO2	11.1%
O=C(Nc1ccccc1)N(Cc1ccccc1)C1=NCCS1	5.37%
CCOC(=O)C1CCN(c2cc(=O)n(C3CCCCC3)c(=O)[nH]2)CC1	0.521%
Cc1nc2nc(SCC(=O)NCc3ccco3)nn2c(C)c1Cc1c(F)cccc1Cl	-49.3%
CCCn1cnc2cc(NCc3cccc(OC)c3O)ccc21	-29.3%
O=C(CCS(=O)(=O)c1ccccc1Cl)NCCC1=CCCCC1	-0.865%
Cc1cc(NS(=O)(=O)c2ccc(NC(=O)CCCOc3cccc(C)c3C)cc2)no1	7.68%
CCc1ccc(NC(=O)CCC(=O)c2ccc(C)cc2)cc1	44.7%
COc1ccccc1C1=NOC(C)(c2sc(-c3ccccc3)nc2C)C1 (centres unmarked)	21.7%

SMILES	hERG current change (%, negative = inhibition) at 10uM
Nn1c(SCC(=O)N2CCOCC2)nnc1-c1ccco1	9.77%
O=C(CN1C(=O)c2cccc3cccc1c23)Nc1ccc(S(=O)(=O)Nc2nccs2)cc1	0.913%
Cc1ccc(S(=O)(=O)N2CCCC2)cc1C(=O)NCC(C)(C)N1CCOCC1	16.5%
O=C(NNC(=O)c1ccccc1[N+](=O)[O-])c1csc(N2CCOCC2)n1	4.44%
CCc1nnc(NC(=O)Cc2ccc(Br)cc2)s1	12.4%
O=C1C=C(O)CC(c2cccs2)C1 (centres unmarked)	21.4%
COc1ccc(CN(Cc2cc3cc(OC)c(OC)cc3[nH]c2=O)C(=O)NC2CCCCC2)cc1	7.13%
CC1CN(c2ncc(/C=N/NC(=O)c3ccccc3O)s2)CC(C)O1 (centres unmarked)	8.4%
COC(=O)c1scc(C)c1-n1ccc(C(=O)C(=O)N(C)C)c1	5.31%
c1csc(-c2nn[nH]n2)c1	7.73%
O=c1[nH]c2ccc(Cl)cc2c(-c2ccccc2)c1CN1CCOCC1	-14.7%
COc1ccccc1NC(=S)N(Cc1ccco1)Cc1cc2cccc(C)c2[nH]c1=O	-3.84%
Cc1ncoc1C(=O)N1CCCC(N2CCN(c3ccccc3F)CC2)C1 (centres unmarked)	0.468%
CCOc1cccc(CN2CCCC(N3CCN(c4cccc(Cl)c4)CC3)C2)c1O (centres unmarked)	-58.7%
COC(=O)c1ccc(NC(=S)Nc2ccccc2)cc1	2.01%
CCOC(=O)C1=C(CS(=O)(=O)c2ccccc2)NC(=O)NC1c1ccc(O)c(OC)c1 (centres unmarked)	14.9%
O=C1c2ccccc2-c2cccc(C(=O)N3CCN(C(=O)c4ccccc4)CC3)c21	-40.4%
CCCN(CC(=O)Nc1ccccc1C)C(=O)c1ccc2c(c1)S(=O)(=O)N=C1CCCCCN12	8.62%
CCC(C(=O)N(C(C)C)C(C)C)c1ccccc1 (centres unmarked)	7.45%
COc1ccc(C(C)=O)cc1CN1CC=C(c2ccccc2)CC1	-17%
